Test results as given in US20230293711A1 (Scripps Research, published 2023).

Biological target: T1, recombinant chimeric mouse CD80-Fc (mouse, UniProt Q00609 38-246, limits assumed)
T1 construct: Commercial Fc chimera; not shown: Fc, detected with anti-human Fc as in panel A
T1 sequence (looked up): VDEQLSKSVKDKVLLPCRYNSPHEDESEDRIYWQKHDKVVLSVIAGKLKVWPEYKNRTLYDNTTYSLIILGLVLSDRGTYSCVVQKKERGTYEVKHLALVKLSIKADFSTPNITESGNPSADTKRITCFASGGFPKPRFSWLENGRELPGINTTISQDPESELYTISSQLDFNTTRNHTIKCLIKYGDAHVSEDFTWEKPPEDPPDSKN
Experiment: flow cytometry on murine CD4+ and CD8+ T cells, detection with fluorescent anti-human Fc

B1: CD28 on murine T cells (receptor)
chain: not shown
notes: whole, on cells; T cells (expressing CD28), untreated or treated with sialidase
binding result: binds
